# Several values for one entry are separate records, joined by “and”; a condition that tells them apart may be missing. Identical values can stand only once. This list was built around the results that the source calls inconclusive (neither active nor inactive); the mix of calls is not that of the screen. For some of these results: Potencies beside an inconclusive call are fits to weak or partial responses and may not hold up. Activity calls are given as the source filed them. Unless noted, the call rests on the fitted dose curve; in most records, active means well fitted curve in the direction sought with a large enough effect in the repeat runs; inconclusive means weak or mixed curves; inactive means no such curve, though single readings can be large; an effect the other way counts as inactive or inconclusive.
# Experiments:
# [1] = qHTS assay to identify small molecule antagonists of the estrogen receptor alpha (ER-alpha) signaling pathway using the BG1 cell line (AID 743080; calls by dose curve;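 further: BG1 cells stimulated with 17beta-estradiol alongside compound; nearly all actives have a fitted effect of over 25% in size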; further: potency means the concentration at half of the fitted maximal effect; on activity change, negative = inhibition: on the % scale 0 is the no-effect control and ±100 the full control effect); settings: BG1Luc4E2 ERE-luciferase antagonist mode, luminescence; activity change, negative = inhibition: at 70.3 µM (top of the series) unless noted
# Outline: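 Endogenous full-length ER-alpha in BG1-Luc-4E2 cells drives a stably integrated 4×ERE luciferase gene; compounds were tested against 17beta-estradiol over 21.5 h, with luminescence and multiplexed viability fluorescence recorded.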
# [2] = molecular target: Peroxisome proliferator-activated receptor gamma (Homo sapiens) (UniProt P37231); assay: qHTS assay to identify small molecule agonists of the peroxisome proliferator-activated receptor gamma (PPARg) signaling pathway (AID 743094; active means well fitted activation curve with a large enough effect in the signal ratio in the repeat runs, not every such curve was filed as active; inconclusive means weak or mixed curves, or effect the other way; inactive means no such curve, though single readings can be large or run the other way; the % refers to the signal ratio; further: on the % scale 0 is the no-effect control and ±100 the full control effect); settings: HEK293H PPARg-UAS-bla, beta-lactamase FRET ratio, 17 h; activation: at 57 µM (top of the series) unless noted
# Sequence of UniProt P37231 (P37231 whole entry, looked up): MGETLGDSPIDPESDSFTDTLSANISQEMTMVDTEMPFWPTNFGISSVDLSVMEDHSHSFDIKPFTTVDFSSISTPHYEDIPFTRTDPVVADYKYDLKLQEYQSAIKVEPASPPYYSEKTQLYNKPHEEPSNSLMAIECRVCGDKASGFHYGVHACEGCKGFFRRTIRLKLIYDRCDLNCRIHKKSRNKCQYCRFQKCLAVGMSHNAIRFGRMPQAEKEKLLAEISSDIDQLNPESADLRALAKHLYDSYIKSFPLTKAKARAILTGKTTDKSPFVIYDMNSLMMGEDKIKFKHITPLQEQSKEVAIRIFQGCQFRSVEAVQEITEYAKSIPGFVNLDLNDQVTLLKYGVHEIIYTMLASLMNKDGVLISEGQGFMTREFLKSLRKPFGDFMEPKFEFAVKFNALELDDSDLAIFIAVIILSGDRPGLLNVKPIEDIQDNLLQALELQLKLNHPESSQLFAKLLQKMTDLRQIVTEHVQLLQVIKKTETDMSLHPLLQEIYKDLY
# Outline: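 Stably transfected HEK293H cells (GeneBLAzer PPARg UAS-bla) were incubated with test substances for 17 h at 37C after a 5 h pre-incubation; beta-lactamase activity was then detected by FRET substrate fluorescence.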
# [3] = qHTS assay to identify small molecule antagonists of the peroxisome proliferator-activated receptor gamma (PPARg) signaling pathway - cell viability counter screen (AID 743194); settings: PPARg-bla HEK293H viability, CellTiter-Glo luminescence, 17 h; Potency: co-treated with 50 nM rosiglitazone unless noted; activity change, negative = cytotoxicity: at 62.6 µM (top of the series), co-treated with 50 nM rosiglitazone unless noted; further: nearly all actives have a fitted effect of over 55% in size; further: potency means the concentration at half of the fitted maximal effect; on activity change, negative = cytotoxicity: on the % scale 0 is the no-effect control and ±100 the full control effect
# Outline: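 PPARg-UAS-bla HEK293H cells were plated, rested 5 h at 37 C, then treated with compounds plus rosiglitazone (50 nM final) for 17 h at 37 C; viability was then read by CellTiter-Glo luminescence after 30 min at room temperature.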
# [4] = molecular target: Thyrotropin receptor (Homo sapiens) (UniProt P16473); assay: qHTS assay to identify small molecule antagonists of the thyroid stimulating hormone receptor (TSHR) signaling pathway (AID 1259385; calls by dose curve; further: nearly all actives have a fitted effect of over 20% in size; further: potency means the concentration at half of the fitted maximal effect); settings: TSHR-HEK293 cAMP HTRF, TSH-stimulated antagonist mode; activity change, negative = inhibition: at 92.4 µM (top of the series)
# Sequence of UniProt P16473 (P16473 whole entry, looked up): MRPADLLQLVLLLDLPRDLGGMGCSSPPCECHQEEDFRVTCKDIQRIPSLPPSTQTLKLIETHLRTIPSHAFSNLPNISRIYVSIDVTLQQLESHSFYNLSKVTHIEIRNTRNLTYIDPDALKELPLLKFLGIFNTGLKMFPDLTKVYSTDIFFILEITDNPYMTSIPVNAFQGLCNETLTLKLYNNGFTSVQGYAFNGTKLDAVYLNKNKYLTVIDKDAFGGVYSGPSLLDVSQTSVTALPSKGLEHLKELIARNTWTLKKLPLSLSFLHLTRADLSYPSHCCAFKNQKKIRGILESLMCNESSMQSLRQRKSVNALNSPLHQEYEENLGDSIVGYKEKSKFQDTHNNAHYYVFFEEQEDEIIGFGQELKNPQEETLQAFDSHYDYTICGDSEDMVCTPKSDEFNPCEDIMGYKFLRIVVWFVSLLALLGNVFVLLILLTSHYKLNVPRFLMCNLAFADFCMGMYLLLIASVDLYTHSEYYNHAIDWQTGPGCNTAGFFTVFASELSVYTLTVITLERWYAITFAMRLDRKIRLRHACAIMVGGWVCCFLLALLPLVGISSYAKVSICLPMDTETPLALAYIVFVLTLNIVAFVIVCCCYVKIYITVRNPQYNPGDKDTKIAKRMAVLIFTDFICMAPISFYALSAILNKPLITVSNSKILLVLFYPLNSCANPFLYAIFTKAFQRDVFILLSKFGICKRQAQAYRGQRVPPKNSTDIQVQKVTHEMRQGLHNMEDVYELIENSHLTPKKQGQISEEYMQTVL
# Outline: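 TSHR-HEK293 cells were plated and held 18 h at 37C/5% CO2, then given compound plus Ro20-1724 and stimulated with TSH at 1.5 ng/mL final. After 30 min at room temperature, cAMP was detected with cAMP-d2/anti-cAMP-cryptate (1 h) by fluorescence.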
# [5] = molecular target: Acetylcholinesterase (Homo sapiens) (UniProt P22303); assay: Acetylcholinesterase (AChE) small molecule antagonists: fluorescence cell-based qHTS assay (AID 1347398; calls by dose curve; further: potency means the concentration at half of the fitted maximal effect; nearly all actives have a fitted effect of over 50% in size); settings: Potency: AChE activity
# Sequence of UniProt P22303 (P22303 whole entry, looked up): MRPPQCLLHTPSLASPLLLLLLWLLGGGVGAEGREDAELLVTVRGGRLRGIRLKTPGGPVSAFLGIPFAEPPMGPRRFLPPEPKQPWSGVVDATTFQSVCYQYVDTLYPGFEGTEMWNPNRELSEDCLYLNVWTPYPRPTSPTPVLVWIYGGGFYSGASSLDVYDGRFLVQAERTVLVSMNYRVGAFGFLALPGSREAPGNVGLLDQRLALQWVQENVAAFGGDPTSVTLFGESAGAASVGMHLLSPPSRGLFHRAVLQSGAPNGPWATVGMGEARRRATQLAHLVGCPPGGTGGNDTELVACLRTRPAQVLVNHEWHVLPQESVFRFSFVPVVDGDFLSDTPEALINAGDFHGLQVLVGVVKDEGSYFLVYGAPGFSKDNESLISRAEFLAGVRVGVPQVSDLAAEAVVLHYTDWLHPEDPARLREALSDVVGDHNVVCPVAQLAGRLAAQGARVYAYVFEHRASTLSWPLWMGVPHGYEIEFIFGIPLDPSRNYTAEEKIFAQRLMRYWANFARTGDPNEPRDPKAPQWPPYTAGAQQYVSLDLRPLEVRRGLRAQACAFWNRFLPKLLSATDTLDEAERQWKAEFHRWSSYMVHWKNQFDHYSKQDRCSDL
# Outline: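 Thiocholine generated from acetylthiocholine by SH-SY5Y cell AChE is detected with Thiolite Green (Ex/Em 490/520 nm) after 40 min at room temperature, following 30 min compound pretreatment at 37 C.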
# [6] = qHTS assay to identify small molecule antagonists of the retinoic acid receptor (RAR) signaling pathway (AID 1159552; further: nearly all actives have a fitted effect of over 50% in size; further: potency means the concentration at half of the fitted maximal effect)
# Outline: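 Retinol at 1 uM final stimulated RARE-luciferase expression in C3RL4 cells exposed to test compounds for 6 hr at 37 C. Reduced luminescence, read 30 min after detection reagent, indicated pathway antagonism.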
# [7] = molecular target: Aryl hydrocarbon receptor (Homo sapiens) (UniProt P35869); assay: qHTS assay to identify small molecule that activate the aryl hydrocarbon receptor (AhR) signaling pathway (AID 743085); further: potency means the concentration at half of the fitted maximal effect; nearly all actives have a fitted effect of over 15% in size
# Sequence of UniProt P35869 (P35869 whole entry, looked up): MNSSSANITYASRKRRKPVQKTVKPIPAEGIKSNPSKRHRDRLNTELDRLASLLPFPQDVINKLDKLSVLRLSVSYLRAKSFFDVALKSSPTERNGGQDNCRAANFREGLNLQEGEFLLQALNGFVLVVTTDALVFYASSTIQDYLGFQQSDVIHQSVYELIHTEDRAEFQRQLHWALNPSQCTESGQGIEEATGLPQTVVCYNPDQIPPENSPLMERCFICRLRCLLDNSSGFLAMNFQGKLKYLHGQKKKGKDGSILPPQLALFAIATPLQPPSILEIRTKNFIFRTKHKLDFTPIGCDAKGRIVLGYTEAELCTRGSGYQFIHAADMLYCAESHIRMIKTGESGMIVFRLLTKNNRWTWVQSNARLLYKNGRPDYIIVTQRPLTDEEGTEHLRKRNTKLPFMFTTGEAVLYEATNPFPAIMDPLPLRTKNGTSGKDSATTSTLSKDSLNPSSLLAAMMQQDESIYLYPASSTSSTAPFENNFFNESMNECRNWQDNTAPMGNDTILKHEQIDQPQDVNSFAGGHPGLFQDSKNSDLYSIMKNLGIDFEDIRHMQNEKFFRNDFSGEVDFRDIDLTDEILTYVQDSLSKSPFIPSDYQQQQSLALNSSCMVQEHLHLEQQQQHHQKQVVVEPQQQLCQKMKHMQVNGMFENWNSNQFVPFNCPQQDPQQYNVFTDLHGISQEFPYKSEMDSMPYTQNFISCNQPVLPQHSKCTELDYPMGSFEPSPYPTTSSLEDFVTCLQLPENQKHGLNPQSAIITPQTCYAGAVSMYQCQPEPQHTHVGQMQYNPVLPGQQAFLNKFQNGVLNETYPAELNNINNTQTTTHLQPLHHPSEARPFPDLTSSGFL
# Outline: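 Compounds were tested in HepG2 hepatocellular carcinoma cells harbouring a stably integrated luciferase gene under control of 20 DREs. Increased reporter signal after 24 h treatment at 37C was taken as AhR activation.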
# [8] = qHTS assay to identify small molecule antagonists of the sonic hedgehog signaling (Shh) pathway - cell viability counter screen (AID 1259367); further: nearly all actives have a fitted effect of over 55% in size; further: potency means the concentration at half of the fitted maximal effect
# Outline: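 After a 4 hr settling period, 3T3 Gli1-Luc cells were treated with DMSO-dissolved chemicals and conditioned medium, kept 24 hr at 37C in 5% CO2, and assayed for viability by CellTiter-Fluor fluorescence following 1 hr reagent incubation.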
# [9] = qHTS assay to identify small molecule agonists of the peroxisome proliferator-activated receptor delta (PPARd) signaling pathway - cell viability counter screen (AID 743211); settings: PPARd-bla HEK293H viability, CellTiter-Glo luminescence, 17 h; activity change, negative = cytotoxicity: at 62.6 µM (top of the series); further: nearly all actives have a fitted effect of over 55% in size; further: potency means the concentration at half of the fitted maximal effect
# Outline: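 Counter screen for cytotoxicity run in parallel with the PPARd reporter screen. Beta-lactamase reporter HEK293H cells exposed to compounds 17 h; ATP-based CellTiter-Glo luminescence quantified viability.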
# [10] = qHTS assay to identify small molecule agonists of H2AX (AID 1224845; active means well fitted activation curve with a large enough effect in the signal ratio in the repeat runs, not every such curve was filed as active; inconclusive means weak or mixed curves; the % refers to the signal ratio; further: on the % scale 0 is the no-effect control and ±100 the full control effect); settings: CHO-K1 phospho-H2AX Ser139 HTRF, 3 h; activation (H2AX phosphorylation): at 154 µM (top of the series) unless noted
# Outline: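 Wild-type CHO-K1 cells plated overnight, then exposed 3 hr at 37C to compounds at 15 concentrations (0.76% DMSO). Lysed, then HTRF anti-pH2AX(S139)-cryptate/anti-H2AX-d2 detection after 24 hr at room temperature; emissions 665 and 620 nm.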
# [11] = Caspase-3/7 induction in HepG2 cells by small molecules, qHTS cell viability counter screen (AID 1346981); further: nearly all actives have a fitted effect of over 30% in size; further: potency means the concentration at half of the fitted maximal effect
# Outline: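 Counter screen for cytotoxicity: HepG2 exposed 16 hr to compounds, then CellTiter-Fluor viability signal (fluorescence, 1 hr reagent incubation).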
# [12] = qHTS assay to identify small molecule antagonists of the constitutive androstane receptor (CAR) signaling pathway - cell viability counter screen (AID 1224837); further: potency means the concentration at half of the fitted maximal effect; nearly all actives have a fitted effect of over 45% in size
# Outline: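 Fluorescence from CellTiter-Fluor served as the viability signal. Human hepatoma HepG2 cells stably bearing hCAR and CYP2B6-2.2kb received compound plus CITCO (50 nM final) for 23 hr.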
# [13] = Human pregnane X receptor (PXR) small molecule agonists, qHTS cell viability counter screen (AID 1346977); further: potency means the concentration at half of the fitted maximal effect; nearly all actives have a fitted effect of over 50% in size
# Outline: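 Cytotoxicity counter screen run in the same wells as the PXR luciferase assay, using PXR-Luc HepG2 cells in charcoal-stripped serum medium. Viability: CellTiter-Fluor fluorescence after 24hr compound treatment.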
# [14] = qHTS assay to identify small molecule antagonists of the estrogen related receptor (ERR) signaling pathway from Tox21 library - cell viability counter screen (AID 1224834); further: on the % scale 0 is the no-effect control and ±100 the full control effect; nearly all actives have a fitted effect of over 30% in size
# Outline: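 Viability readout (CellTiter-Fluor fluorescence, 30 min at 37 C) multiplexed with the ERR assay; cells treated 17.5 h at 37 C with compounds delivered in DMSO.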
# [15] = qHTS assay to identify small molecule antagonists of the estrogen receptor alpha (ER-alpha) signaling pathway using the BG1 cell line - cell viability counter screen (AID 743081); settings: BG1Luc4E2 viability, CellTiter-Fluor, 22 h; activity change, negative = cytotoxicity: at 70.3 µM (top of the series);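 further: compound given together with 17beta-estradiol as the ER stimulus; on the % scale 0 is the no-effect control and ±100 the full control effect; nearly all actives have a fitted effect of over 45% in size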
# [16] = qHTS assay to identify small molecule agonists of the sonic hedgehog signaling (Shh) pathway - cell viability counter screen (AID 1259366); further: on the % scale 0 is the no-effect control and ±100 the full control effect; nearly all actives have a fitted effect of over 50% in size
# Outline: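 Cells are plated at 2,000 per well and left 4hr at 37C, 5% CO2 before compound addition. After 23hr of treatment, CellTiter-Fluor reagent is added for 1hr at 37C and fluorescence is measured.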
# Tags describe the fitted curve by direction and shape.
smiles,measurement,setting,value
CCOP(=S)(OCC)Oc1cc(-c2ccccc2)on1,Potency,[1],"inconclusive: 19.3 µM [rising, partial curve]"
same,activation,[2],inconclusive: 4.88%
same,Potency,[3],"inconclusive: 309 nM [rising, full curve, poor fit]"
same,Potency,[4],"inconclusive: 43.3 µM [falling, partial curve]"
same,Potency,[5],active: 44.8 µM
CNC(=O)Oc1cc(C)cc(C(C)C)c1,Potency,[1],inactive
same,Potency,[3],inactive
same,Potency,[6],"inconclusive: 43.3 µM [inhibitor, partial curve]"
same,Potency,[5],active: 0.178 µM
Nc1ccc(Cc2ccc(N)cc2)cc1,Potency,[7],"active: 30.1 µM and inconclusive: 68.6 µM [activator, single point]"
same,Potency,[8],inactive
COc1ccc2c(C(=O)c3ccc(Cl)cc3)c(C)n(CC(=O)O)c2c1,Potency,[3],"inconclusive: 6.68 µM [rising, partial curve, poor fit] [setting not given]"
same,Potency,[9],"inconclusive: 2.98 µM [cytotoxic, single point]"
same,Potency,[6],inactive
same,Potency,[5],"inconclusive: 9.77 µM [inhibitor, single point]"
COP(=S)(OC)Oc1c(Cl)cc(C)cc1Cl,Potency,[3],inactive
same,Potency,[9],inactive
same,Potency,[10],inactive
same,Potency,[4],active: 54.5 µM
same,Potency,[11],inactive
COc1ccc2c(c1OC)C(=O)O[C@H]2[C@@H]1c2cc3c(cc2CCN1C)OCO3,Potency,[7],"inconclusive: 26.6 µM [activator, partial curve]"
same,Potency,[12],"inconclusive: 3.35 µM [cytotoxic, full curve]"
same,Potency,[8],active: 5.96 µM
same,Potency,[13],"inconclusive: 9.44 µM [cytotoxic, partial curve, poor fit]"
same,Potency,[11],active: 11.9 µM
CCCCOC(=O)c1ccccc1C(=O)O,Potency,[7],"inconclusive: 68.6 µM [activator, partial curve, poor fit]"
same,Potency,[11],inactive
CNC(=O)Oc1cccc(C(C)C)c1,Potency,[14],inactive
same,Potency,[4],inactive
CNC(=O)Oc1cccc(N=CN(C)C)c1,Potency,[1],"inconclusive: 30.6 µM [rising, partial curve, poor fit]"
same,Potency,[15],inactive
same,Potency,[7],"inconclusive: 68.6 µM [activator, single point]"
same,Potency,[16],inactive
same,Potency,[5],active: 3.56 µM

# Reference: PubChem BioAssay (Tox21)
